# Laboratory results taken from the supplement of paper PMC11876631.
# ± gives the standard deviation of the averaged measurements. Laboratory Escherichia coli strains with one amino-acid change in an essential protein, pooled on minimal glucose agar with carbenicillin or gentamicin at twice the control MIC (plus kanamycin and chloramphenicol for the plasmids), 48 h. Fold change of barcode share against drug-free plates; higher = less susceptible. Active = above 20 in both replicates (the paper's putatively resistant). '<' = one read or none on drug, '>' = one read or none on a drug-free plate. Shares are relative, so most strains fall below 1 when a few take over. Listed are strains with at least 15 reads on both drug-free plates, and hits; most hits rest on fewer reference reads. Replicate rank correlation about 0.5. Edits are read from barcodes.
# B1: glmS V96Q (protein)
# chain: MCGIVGAIAQRDVAEILLEGLRRLEYRGYDSAGLAVVDAEGHMTRLRRLGKVQMLAQAAEEHPLHGGTGIAHTRWATHGEPSEVNAHPHVSEHIVQVHNGIIENHEPLREELKARGYTFVSETDTEVIAHLVNWELKQGGTLREAVLRAIPQLRGAYGTVIMDSRHPDTLLAARSGSPLVIGLGMGENFIASDQLALLPVTRRFIFLEEGDIAEITRRSVNIFDKTGAEVKRQDIESNLQYDAGDKGIYRHYMQKEIYEQPNAIKNTLTGRISHGQVDLSELGPNADELLSKVEHIQILACGTSYNSGMVSRYWFESLAGIPCDVEIASEFRYRKSAVRRNSLMITLSQSGETADTLAGLRLSKELGYLGSLAICNVPGSSLVRESDLALMTNAGTEIGVASTKAFTTQLTVLLMLVAKLSRLKGLDASIEHDIVHGLQALPSRIEQMLSQDKRIEALAEDFSDKHHALFLGRGDQYPIALEGALKLKEISYIHAEAYAAGELKHGPLALIDADMPVIVVAPNNELLEKLKSNIEEVRARGGQLYVFADQDAGFVSSDNMHIIEMPHVEEVIAPIFYTVPLQLLAYHVALIKGTDVDQPRNLAKSVTVE
# B2: glmS V97Q (protein)
# chain: MCGIVGAIAQRDVAEILLEGLRRLEYRGYDSAGLAVVDAEGHMTRLRRLGKVQMLAQAAEEHPLHGGTGIAHTRWATHGEPSEVNAHPHVSEHIVVQHNGIIENHEPLREELKARGYTFVSETDTEVIAHLVNWELKQGGTLREAVLRAIPQLRGAYGTVIMDSRHPDTLLAARSGSPLVIGLGMGENFIASDQLALLPVTRRFIFLEEGDIAEITRRSVNIFDKTGAEVKRQDIESNLQYDAGDKGIYRHYMQKEIYEQPNAIKNTLTGRISHGQVDLSELGPNADELLSKVEHIQILACGTSYNSGMVSRYWFESLAGIPCDVEIASEFRYRKSAVRRNSLMITLSQSGETADTLAGLRLSKELGYLGSLAICNVPGSSLVRESDLALMTNAGTEIGVASTKAFTTQLTVLLMLVAKLSRLKGLDASIEHDIVHGLQALPSRIEQMLSQDKRIEALAEDFSDKHHALFLGRGDQYPIALEGALKLKEISYIHAEAYAAGELKHGPLALIDADMPVIVVAPNNELLEKLKSNIEEVRARGGQLYVFADQDAGFVSSDNMHIIEMPHVEEVIAPIFYTVPLQLLAYHVALIKGTDVDQPRNLAKSVTVE
# B3: glmS V97P (protein)
# chain: MCGIVGAIAQRDVAEILLEGLRRLEYRGYDSAGLAVVDAEGHMTRLRRLGKVQMLAQAAEEHPLHGGTGIAHTRWATHGEPSEVNAHPHVSEHIVVPHNGIIENHEPLREELKARGYTFVSETDTEVIAHLVNWELKQGGTLREAVLRAIPQLRGAYGTVIMDSRHPDTLLAARSGSPLVIGLGMGENFIASDQLALLPVTRRFIFLEEGDIAEITRRSVNIFDKTGAEVKRQDIESNLQYDAGDKGIYRHYMQKEIYEQPNAIKNTLTGRISHGQVDLSELGPNADELLSKVEHIQILACGTSYNSGMVSRYWFESLAGIPCDVEIASEFRYRKSAVRRNSLMITLSQSGETADTLAGLRLSKELGYLGSLAICNVPGSSLVRESDLALMTNAGTEIGVASTKAFTTQLTVLLMLVAKLSRLKGLDASIEHDIVHGLQALPSRIEQMLSQDKRIEALAEDFSDKHHALFLGRGDQYPIALEGALKLKEISYIHAEAYAAGELKHGPLALIDADMPVIVVAPNNELLEKLKSNIEEVRARGGQLYVFADQDAGFVSSDNMHIIEMPHVEEVIAPIFYTVPLQLLAYHVALIKGTDVDQPRNLAKSVTVE
# B4: glmS V95A (protein)
# chain: MCGIVGAIAQRDVAEILLEGLRRLEYRGYDSAGLAVVDAEGHMTRLRRLGKVQMLAQAAEEHPLHGGTGIAHTRWATHGEPSEVNAHPHVSEHIAVVHNGIIENHEPLREELKARGYTFVSETDTEVIAHLVNWELKQGGTLREAVLRAIPQLRGAYGTVIMDSRHPDTLLAARSGSPLVIGLGMGENFIASDQLALLPVTRRFIFLEEGDIAEITRRSVNIFDKTGAEVKRQDIESNLQYDAGDKGIYRHYMQKEIYEQPNAIKNTLTGRISHGQVDLSELGPNADELLSKVEHIQILACGTSYNSGMVSRYWFESLAGIPCDVEIASEFRYRKSAVRRNSLMITLSQSGETADTLAGLRLSKELGYLGSLAICNVPGSSLVRESDLALMTNAGTEIGVASTKAFTTQLTVLLMLVAKLSRLKGLDASIEHDIVHGLQALPSRIEQMLSQDKRIEALAEDFSDKHHALFLGRGDQYPIALEGALKLKEISYIHAEAYAAGELKHGPLALIDADMPVIVVAPNNELLEKLKSNIEEVRARGGQLYVFADQDAGFVSSDNMHIIEMPHVEEVIAPIFYTVPLQLLAYHVALIKGTDVDQPRNLAKSVTVE
# B5: glmS V96D (protein)
# chain: MCGIVGAIAQRDVAEILLEGLRRLEYRGYDSAGLAVVDAEGHMTRLRRLGKVQMLAQAAEEHPLHGGTGIAHTRWATHGEPSEVNAHPHVSEHIVDVHNGIIENHEPLREELKARGYTFVSETDTEVIAHLVNWELKQGGTLREAVLRAIPQLRGAYGTVIMDSRHPDTLLAARSGSPLVIGLGMGENFIASDQLALLPVTRRFIFLEEGDIAEITRRSVNIFDKTGAEVKRQDIESNLQYDAGDKGIYRHYMQKEIYEQPNAIKNTLTGRISHGQVDLSELGPNADELLSKVEHIQILACGTSYNSGMVSRYWFESLAGIPCDVEIASEFRYRKSAVRRNSLMITLSQSGETADTLAGLRLSKELGYLGSLAICNVPGSSLVRESDLALMTNAGTEIGVASTKAFTTQLTVLLMLVAKLSRLKGLDASIEHDIVHGLQALPSRIEQMLSQDKRIEALAEDFSDKHHALFLGRGDQYPIALEGALKLKEISYIHAEAYAAGELKHGPLALIDADMPVIVVAPNNELLEKLKSNIEEVRARGGQLYVFADQDAGFVSSDNMHIIEMPHVEEVIAPIFYTVPLQLLAYHVALIKGTDVDQPRNLAKSVTVE
# B6: glmS V96P (protein)
# chain: MCGIVGAIAQRDVAEILLEGLRRLEYRGYDSAGLAVVDAEGHMTRLRRLGKVQMLAQAAEEHPLHGGTGIAHTRWATHGEPSEVNAHPHVSEHIVPVHNGIIENHEPLREELKARGYTFVSETDTEVIAHLVNWELKQGGTLREAVLRAIPQLRGAYGTVIMDSRHPDTLLAARSGSPLVIGLGMGENFIASDQLALLPVTRRFIFLEEGDIAEITRRSVNIFDKTGAEVKRQDIESNLQYDAGDKGIYRHYMQKEIYEQPNAIKNTLTGRISHGQVDLSELGPNADELLSKVEHIQILACGTSYNSGMVSRYWFESLAGIPCDVEIASEFRYRKSAVRRNSLMITLSQSGETADTLAGLRLSKELGYLGSLAICNVPGSSLVRESDLALMTNAGTEIGVASTKAFTTQLTVLLMLVAKLSRLKGLDASIEHDIVHGLQALPSRIEQMLSQDKRIEALAEDFSDKHHALFLGRGDQYPIALEGALKLKEISYIHAEAYAAGELKHGPLALIDADMPVIVVAPNNELLEKLKSNIEEVRARGGQLYVFADQDAGFVSSDNMHIIEMPHVEEVIAPIFYTVPLQLLAYHVALIKGTDVDQPRNLAKSVTVE
# B7: glmS V97A (protein)
# chain: MCGIVGAIAQRDVAEILLEGLRRLEYRGYDSAGLAVVDAEGHMTRLRRLGKVQMLAQAAEEHPLHGGTGIAHTRWATHGEPSEVNAHPHVSEHIVVAHNGIIENHEPLREELKARGYTFVSETDTEVIAHLVNWELKQGGTLREAVLRAIPQLRGAYGTVIMDSRHPDTLLAARSGSPLVIGLGMGENFIASDQLALLPVTRRFIFLEEGDIAEITRRSVNIFDKTGAEVKRQDIESNLQYDAGDKGIYRHYMQKEIYEQPNAIKNTLTGRISHGQVDLSELGPNADELLSKVEHIQILACGTSYNSGMVSRYWFESLAGIPCDVEIASEFRYRKSAVRRNSLMITLSQSGETADTLAGLRLSKELGYLGSLAICNVPGSSLVRESDLALMTNAGTEIGVASTKAFTTQLTVLLMLVAKLSRLKGLDASIEHDIVHGLQALPSRIEQMLSQDKRIEALAEDFSDKHHALFLGRGDQYPIALEGALKLKEISYIHAEAYAAGELKHGPLALIDADMPVIVVAPNNELLEKLKSNIEEVRARGGQLYVFADQDAGFVSSDNMHIIEMPHVEEVIAPIFYTVPLQLLAYHVALIKGTDVDQPRNLAKSVTVE
# B8: glmS V97D (protein)
# chain: MCGIVGAIAQRDVAEILLEGLRRLEYRGYDSAGLAVVDAEGHMTRLRRLGKVQMLAQAAEEHPLHGGTGIAHTRWATHGEPSEVNAHPHVSEHIVVDHNGIIENHEPLREELKARGYTFVSETDTEVIAHLVNWELKQGGTLREAVLRAIPQLRGAYGTVIMDSRHPDTLLAARSGSPLVIGLGMGENFIASDQLALLPVTRRFIFLEEGDIAEITRRSVNIFDKTGAEVKRQDIESNLQYDAGDKGIYRHYMQKEIYEQPNAIKNTLTGRISHGQVDLSELGPNADELLSKVEHIQILACGTSYNSGMVSRYWFESLAGIPCDVEIASEFRYRKSAVRRNSLMITLSQSGETADTLAGLRLSKELGYLGSLAICNVPGSSLVRESDLALMTNAGTEIGVASTKAFTTQLTVLLMLVAKLSRLKGLDASIEHDIVHGLQALPSRIEQMLSQDKRIEALAEDFSDKHHALFLGRGDQYPIALEGALKLKEISYIHAEAYAAGELKHGPLALIDADMPVIVVAPNNELLEKLKSNIEEVRARGGQLYVFADQDAGFVSSDNMHIIEMPHVEEVIAPIFYTVPLQLLAYHVALIKGTDVDQPRNLAKSVTVE
# B9: argC I302Q (protein)
# chain: MLNTLIVGASGYAGAELVTYVNRHPHMNITALTVSAQSNDAGKLISDLHPQLKGIVDLPLQPMSDISEFSPGVDVVFLATAHEVSHDLAPQFLEAGCVVFDLSGAFRVNDATFYEKYYGFTHQYPELLEQAAYGLAEWCGNKLKEANLIAVPGCYPTAAQLALKPLIDADLLDLNQWPVINATSGVSGAGRKAAISNSFCEVSLQPYGVFTHRHQPEIATHLGADVIFTPHLGNFPRGILETITCRLKSGVTQAQVAQVLQQAYAHKPLVRLYDKGVPALKNVVGLPFCDIGFAVQGEHLIQVATEDNLLKGAAAQAVQCANIRFGYAETQSLI
# Target: Escherichia coli (laboratory strain)
# Assay: barcode share on antibiotic plates over drug-free plates; higher = less susceptible
# Details: antibiotic: carbenicillin; 2× MIC (3.1 µg/mL)
# Experimental: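 A pool of E. coli strains, each edited to carry one amino-acid change in an essential protein, was grown for 48 h on minimal glucose agar with or without antibiotic; strain barcodes were sequenced; mean of two replicates.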
row,Protein,fold change of barcode share
1,B1,0.263 ± 0.083
2,B2,0.291 ± 0.084
3,B3,0.541 ± 0.31
4,B4,0.502 ± 0.16
5,B5,0.263 ± 0.017
6,B6,0.532 ± 0.13
7,B7,0.358 ± 0.1
8,B8,0.57 ± 0.46
9,B9,0.293 ± 0.076

# Same assay, conditions: antibiotic: gentamicin; 2× MIC (MIC 0.45 µg/mL)
row,Protein,fold change of barcode share
1,B1,0.00584 ± 0.0058
2,B2,< 0.00594
3,B3,< 0.00337
4,B4,0.00337 ± 8.9e-05
5,B5,0.0049 ± 0.0027
6,B6,0.00458 ± 0.0015
7,B7,0.00634 ± 0.0029
8,B8,< 0.00386
9,B9,< 0.00589
